From US20150330981A1 (published 2015)

Molecular target: T1, HA PGC-1β (full-length mouse PGC-1β with HA tag) (mouse, UniProt Q8VHJ7 1-1014)
T1 sequence (looked up): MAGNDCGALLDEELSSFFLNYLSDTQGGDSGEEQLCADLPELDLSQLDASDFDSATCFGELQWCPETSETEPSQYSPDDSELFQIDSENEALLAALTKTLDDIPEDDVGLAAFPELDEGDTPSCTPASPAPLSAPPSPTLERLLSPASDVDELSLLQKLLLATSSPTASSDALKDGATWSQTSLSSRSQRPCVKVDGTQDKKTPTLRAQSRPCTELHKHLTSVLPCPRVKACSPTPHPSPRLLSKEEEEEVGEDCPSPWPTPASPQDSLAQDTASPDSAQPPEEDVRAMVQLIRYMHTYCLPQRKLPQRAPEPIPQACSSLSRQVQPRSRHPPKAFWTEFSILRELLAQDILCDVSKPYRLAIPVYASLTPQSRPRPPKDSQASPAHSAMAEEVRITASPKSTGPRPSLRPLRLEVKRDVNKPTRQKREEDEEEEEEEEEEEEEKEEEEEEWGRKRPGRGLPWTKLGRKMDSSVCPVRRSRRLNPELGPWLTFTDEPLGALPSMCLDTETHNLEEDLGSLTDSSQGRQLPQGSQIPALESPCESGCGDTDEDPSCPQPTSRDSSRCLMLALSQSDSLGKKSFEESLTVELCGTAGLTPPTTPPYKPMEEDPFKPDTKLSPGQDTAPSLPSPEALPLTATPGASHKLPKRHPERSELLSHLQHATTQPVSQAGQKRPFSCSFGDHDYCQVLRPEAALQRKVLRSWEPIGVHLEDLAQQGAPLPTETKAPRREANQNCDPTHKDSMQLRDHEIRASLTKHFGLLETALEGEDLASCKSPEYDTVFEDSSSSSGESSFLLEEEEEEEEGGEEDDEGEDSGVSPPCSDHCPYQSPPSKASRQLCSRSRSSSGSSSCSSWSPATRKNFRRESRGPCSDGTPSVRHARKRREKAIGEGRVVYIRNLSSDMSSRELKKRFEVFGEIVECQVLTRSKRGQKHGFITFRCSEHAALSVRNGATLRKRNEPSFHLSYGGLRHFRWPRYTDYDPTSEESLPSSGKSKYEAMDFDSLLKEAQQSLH
Assay: cell-based or functional assay

B1: synoviolin with FLAG tag (SYVN1/FLAG) (enzyme, not shown: small tags and cut ends)
chain: not shown
- half-life of PGC-1β in cells (cycloheximide chase, Western blot): 1.6 h
